From patent US20250361279A1 (Hoffmann-La Roche, published 2025)

What was measured:
[1] = molecular target: T1, IL-7 receptor (IL-7R alpha chain and common gamma chain) on human T cells (human, UniProt P16871 21-459; P31785 23-369); assay: flow cytometry, fresh PBMCs, bystander (PD-1- TCF-1-) CD8 T cells
T1 construct: whole, on cells; Endogenous receptor on CD4 and CD8 T cells of healthy donors; also called IL-7Rα; CD127
T1 sequence (looked up) 1: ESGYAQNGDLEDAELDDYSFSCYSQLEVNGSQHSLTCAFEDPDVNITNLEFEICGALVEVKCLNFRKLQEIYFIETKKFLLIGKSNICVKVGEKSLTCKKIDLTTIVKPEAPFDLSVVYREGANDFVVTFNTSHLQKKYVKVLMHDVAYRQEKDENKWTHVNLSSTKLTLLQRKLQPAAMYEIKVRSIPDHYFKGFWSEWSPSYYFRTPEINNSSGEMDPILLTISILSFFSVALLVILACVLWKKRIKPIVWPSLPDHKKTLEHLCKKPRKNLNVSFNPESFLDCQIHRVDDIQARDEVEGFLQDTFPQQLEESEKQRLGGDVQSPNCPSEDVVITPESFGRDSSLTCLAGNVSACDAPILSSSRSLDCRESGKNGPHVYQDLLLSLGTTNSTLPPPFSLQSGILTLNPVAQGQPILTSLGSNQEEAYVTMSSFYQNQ
T1 sequence (looked up) 2: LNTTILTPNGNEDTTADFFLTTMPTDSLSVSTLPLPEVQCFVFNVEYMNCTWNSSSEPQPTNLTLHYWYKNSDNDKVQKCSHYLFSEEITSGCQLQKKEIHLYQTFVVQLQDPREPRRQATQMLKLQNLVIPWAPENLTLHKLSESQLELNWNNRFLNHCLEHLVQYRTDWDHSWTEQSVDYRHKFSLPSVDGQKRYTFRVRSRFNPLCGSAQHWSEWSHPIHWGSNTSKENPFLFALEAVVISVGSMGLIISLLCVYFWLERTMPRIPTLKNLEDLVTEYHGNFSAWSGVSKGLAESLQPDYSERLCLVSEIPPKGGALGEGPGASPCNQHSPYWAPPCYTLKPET

[2] = molecular target: T2, human huPD1-ECD_Fc (P1AD9704) (human, UniProt Q15116 partial chain); assay: SPR Biacore T200, sample captured by anti-PGLALA, huPD1-ECD-Fc injected; sample stressed 2 w/pH 6.0, +40°C
T2 construct: extracellular domain; In-house reagent; not shown: Fc part

[3] = molecular target: T3, human IL7Rα-IL2Rg-Fc (P1AF4984) (human, UniProt P16871 21-239; P31785 23-262, limits assumed); assay: SPR Biacore T200, sample captured by anti-PGLALA, IL7Ra-IL2Rg-Fc injected; sample 2 w/pH 6.0, -80°C (reference)
T3 construct: In-house heterodimeric Fc fusion; also called IL7Ra-IL2Rg-Fc; human IL7Ralpha-IL2Rgamma-Fc heterodimer; not shown: Fc part
T3 sequence (looked up) 1: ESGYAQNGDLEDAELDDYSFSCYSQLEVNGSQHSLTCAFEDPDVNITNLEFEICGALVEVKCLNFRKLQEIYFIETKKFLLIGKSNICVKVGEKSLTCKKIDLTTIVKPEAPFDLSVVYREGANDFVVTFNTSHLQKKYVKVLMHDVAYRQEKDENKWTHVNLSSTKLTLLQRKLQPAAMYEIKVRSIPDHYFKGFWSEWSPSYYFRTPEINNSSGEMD
T3 sequence (looked up) 2: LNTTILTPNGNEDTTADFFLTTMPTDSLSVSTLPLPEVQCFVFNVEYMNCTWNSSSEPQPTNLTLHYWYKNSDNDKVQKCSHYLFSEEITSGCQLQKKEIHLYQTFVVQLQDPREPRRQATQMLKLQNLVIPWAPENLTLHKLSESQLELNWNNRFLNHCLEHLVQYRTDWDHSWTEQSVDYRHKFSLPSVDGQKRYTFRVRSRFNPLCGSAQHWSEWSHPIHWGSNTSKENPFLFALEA

[4] = molecular target: T1, IL-7 receptor (IL-7R alpha chain and …); assay: flow cytometry, fresh PBMCs, naive (TCF-1+ PD-1-) CD8 T cells
[5] = molecular target: T1, IL-7 receptor (IL-7R alpha chain and …); assay: flow cytometry, fresh PBMCs, naive (TCF-1+ PD-1-) CD4 T cells; parameters: unit not given beside the values
[6] = molecular target: T2, human huPD1-ECD_Fc (P1AD9704); assay: SPR Biacore T200, sample captured by anti-PGLALA, huPD1-ECD-Fc injected; sample 2 w/pH 6.0, -80°C (reference)
[7] = molecular target: T1, IL-7 receptor (IL-7R alpha chain and …); assay: flow cytometry, fresh PBMCs, naive (TCF-1+ PD-1-) CD8 T cells; parameters: unit not given beside the values
[8] = molecular target: T1, IL-7 receptor (IL-7R alpha chain and …); assay: cell-based or functional assay
[9] = molecular target: T1, IL-7 receptor (IL-7R alpha chain and …); assay: flow cytometry, fresh PBMCs, bystander (PD-1- TCF-1-) CD4 T cells
[10] = molecular target: T3, human IL7Rα-IL2Rg-Fc (P1AF4984); assay: SPR Biacore T200, sample captured by anti-PGLALA, IL7Ra-IL2Rg-Fc injected; sample stressed 2 w/pH 6.0, +40°C
[11] = molecular target: T1, IL-7 receptor (IL-7R alpha chain and …); assay: flow cytometry, fresh PBMCs, naive (TCF-1+ PD-1-) CD4 T cells
[12] = molecular target: human PD-1 on activated CD4 T cells (human, UniProt Q15116 25-288); assay: cell-based or functional assay
[13] = molecular target: T1, IL-7 receptor (IL-7R alpha chain and …); assay: cell-based or functional assay; remark: listed apart in the source

B1: P1AI5587 (PD1-IL7v2.6, fully glycosylated; de-risked PD1 binder FV020519; IL7 E13K, G85E; (G2SG2)3 linker) (other)
light: DIVMTQSPDSLAVSLGERATINCKASESVDTSDNSFIHWYQQKPGQSPKLLIYRASTLESGVPDRFSGSGSGTDFTLTISSLQAEDVAVYYCQQNYDVPWTFGQGTKVEIKRTVAAPSVFIFPPSDEQLKSGTASVVCLLNNFYPREAKVQWKVDNALQSGNSQESVTEQDSKDSTYSLSSTLTLSKADYEKHKVYACEVTHQGLSSPVTKSFNRGEC
heavy 1: EVQLLESGGGLVQPGGSLRLSCAASGFSFSSYTMSWVRQAPGKGLEWVSAISGGGRDIYYPDSVKGRFTISRDNSKNTLYLQMNSLRAEDTAVYYCVLLTGRVYFALDSWGQGTLVTVSSASTKGPSVFPLAPSSKSTSGGTAALGCLVKDYFPEPVTVSWNSGALTSGVHTFPAVLQSSGLYSLSSVVTVPSSSLGTQTYICNVNHKPSNTKVDKKVEPKSCDKTHTCPPCPAPEAAGGPSVFLFPPKPKDTLMISRTPEVTCVVVDVSHEDPEVKFNWYVDGVEVHNAKTKPREEQYNSTYRVVSVLTVLHQDWLNGKEYKCKVSNKALGAPIEKTISKAKGQPREPQVCTLPPSRDELTKNQVSLSCAVKGFYPSDIAVEWESNGQPENNYKTTPPVLDSDGSFFLVSKLTVDKSRWQQGNVFSCSVMHEALHNHYTQKSLSLSPG
heavy 2: EVQLLESGGGLVQPGGSLRLSCAASGFSFSSYTMSWVRQAPGKGLEWVSAISGGGRDIYYPDSVKGRFTISRDNSKNTLYLQMNSLRAEDTAVYYCVLLTGRVYFALDSWGQGTLVTVSSASTKGPSVFPLAPSSKSTSGGTAALGCLVKDYFPEPVTVSWNSGALTSGVHTFPAVLQSSGLYSLSSVVTVPSSSLGTQTYICNVNHKPSNTKVDKKV[sequence of human IgG1 Fc with changes omitted]GGSGGGGSGGGGSGGDCDIEGKDGKQYKSVLMVSIDQLLDSMKEIGSNCLNNEFNFFKRHICDANKEGMFLFRAARKLRQFLKMNSTGDFDLHLLKVSEETTILLNCTGQVKGRKPAALGEAQPTKSLEENKSLKEQKKLNDLCFLKRLLQEIKTCWNKILMGTKEH
notes: Immunoconjugate: anti-PD-1 IgG1 (FV020519), knob-into-hole, PGLALA; IL-7 variant fused to the C-terminus of the knob heavy chain; Several batches of the same construct were tested; the batch is named in the rows; also called P1AI5587-007 (transient); P1AI5587-270 (transient)
fold reduction in binding compared to P1AF7303 [1]: 6.53 fold
Relative Active Concentration (RAC), binding relative to the non-stressed sample [2]: 108%
Relative Active Concentration (RAC), binding relative to the non-stressed sample [3]: 100%
fold reduction in binding compared to P1AF7303 [4]: 39.6 fold
AUC of dose-response binding (frequency of anti-PGLALA+ cells) [5]: 8
Relative Active Concentration (RAC), binding relative to the non-stressed sample [6]: 100%
AUC of dose-response binding (frequency of anti-PGLALA+ cells) [7]: 10
fold decrease in STAT-5P potency on PD-1- T cells relative to P1AH4515 [8]: 66 fold
fold decrease in STAT-5P potency on PD-1- T cells relative to P1AH4515 (P1AI5587 from stable transfection) [8]: 250 fold
fold reduction in binding compared to P1AF7303 [9]: 29.7 fold
Relative Active Concentration (RAC), binding relative to the non-stressed sample [10]: 114%
fold reduction in binding compared to P1AF7303 [11]: 48.1 fold
Cis-delivery: fold increase in EC50, EC50 [with PD1bl]/EC50 [no PD1bl] (batch P1AI5587-270, transient) [12]: 118 fold
Cis-delivery: fold increase in EC50, EC50 [with PD1bl]/EC50 [no PD1bl] (batch P1AI5587-468, stable) [12]: 80.6 fold
Potency reduction to PD1-IL7wt: EC50 (PD1+)/EC50 (PD1-IL7wt) (batch P1AI5587-270, transient) [13]: 16.7 fold
Potency reduction to PD1-IL7wt: EC50 (PD1+)/EC50 (PD1-IL7wt) (batch P1AI5587-468, stable) [13]: 6.1 fold
